# From PMC4336329 (PLoS ONE, 2015)
# About 2,200 (0.71%) of roughly 310,000 compounds showed an effect of 50% or more. The effect is printed as a negative number. The list shows a part of the results.
# Target: human ether-à-go-go-related gene (hERG) potassium channel (human, UniProt Q12809)
# Test: primary screen, population patch clamp on CHO cells stably expressing hERG
# human ether-à-go-go-related gene (hERG) potassium channel, sequence (Q12809 whole entry, looked up): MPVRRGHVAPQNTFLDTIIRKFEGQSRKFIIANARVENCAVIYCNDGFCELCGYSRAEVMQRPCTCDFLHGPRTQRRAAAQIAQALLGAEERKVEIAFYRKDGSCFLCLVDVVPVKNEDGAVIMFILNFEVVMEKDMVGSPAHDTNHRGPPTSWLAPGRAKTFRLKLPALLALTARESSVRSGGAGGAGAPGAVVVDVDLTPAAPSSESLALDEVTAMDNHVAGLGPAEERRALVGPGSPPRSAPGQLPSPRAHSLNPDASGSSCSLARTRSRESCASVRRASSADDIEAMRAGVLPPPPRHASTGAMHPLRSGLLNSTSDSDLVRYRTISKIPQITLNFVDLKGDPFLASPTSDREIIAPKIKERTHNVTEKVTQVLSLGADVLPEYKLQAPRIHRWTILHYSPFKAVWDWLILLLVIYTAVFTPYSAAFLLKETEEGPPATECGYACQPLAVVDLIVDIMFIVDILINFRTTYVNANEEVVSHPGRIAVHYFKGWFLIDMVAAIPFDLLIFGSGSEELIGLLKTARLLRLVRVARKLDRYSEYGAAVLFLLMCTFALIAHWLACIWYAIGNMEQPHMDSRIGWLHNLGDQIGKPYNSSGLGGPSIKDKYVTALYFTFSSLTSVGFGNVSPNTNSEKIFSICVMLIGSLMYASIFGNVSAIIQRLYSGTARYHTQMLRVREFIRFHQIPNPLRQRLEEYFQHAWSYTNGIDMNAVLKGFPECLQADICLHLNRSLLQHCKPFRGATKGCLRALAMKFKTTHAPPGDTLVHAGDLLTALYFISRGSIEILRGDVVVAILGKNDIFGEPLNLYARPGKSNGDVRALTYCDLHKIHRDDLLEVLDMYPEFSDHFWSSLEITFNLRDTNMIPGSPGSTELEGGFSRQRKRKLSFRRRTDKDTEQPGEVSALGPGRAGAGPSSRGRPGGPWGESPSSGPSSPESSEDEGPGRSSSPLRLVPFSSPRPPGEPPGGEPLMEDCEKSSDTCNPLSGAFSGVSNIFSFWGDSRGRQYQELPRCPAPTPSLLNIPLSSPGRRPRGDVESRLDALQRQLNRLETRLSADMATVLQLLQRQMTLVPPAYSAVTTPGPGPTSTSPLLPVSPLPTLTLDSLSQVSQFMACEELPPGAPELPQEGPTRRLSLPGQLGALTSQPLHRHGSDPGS
row,Structure (SMILES),"hERG current change (%, negative = inhibition) at 1uM"
1,O=C(COc1ccccc1-c1ccccc1)N/N=C/c1ccncc1,-9.22%
2,CCCCn1c(CCn2nc(C)c(Br)c2C)n[nH]c1=S,8.84%
3,CCCCC1(CCCC)NC(=S)N(Nc2ccc(C)cc2)C1=O,5.79%
4,CC(C(=O)NN)c1ccc([N+](=O)[O-])cc1 (stereo not drawn),6.21%
5,O=S(=O)(Nc1ccc(Oc2ncccn2)c(Cl)c1)c1ccc(Cl)cc1,9.33%
6,O=S(=O)(Cc1cc(Sc2ccc(Cl)cc2)nc(-c2ccccc2)n1)c1ccccc1,-1.19%
7,Cc1ccc(S(=O)(=O)c2c(C)nn(C(C)(C)C)c2OC(=O)C(C)(C)C)cc1,12.1%
8,CCCc1sc(N2CCCC(C(N)=O)C2)nc1-c1ccccc1 (stereo not drawn),7.03%
9,CCOC(=O)C(C#N)C(c1cccnc1)c1c(C)[nH][nH]c1=O (stereo not drawn),19.8%
10,C=CCN1C(=O)NC(=O)/C(=C/c2ccc(OC)c(COc3ccc(NC(C)=O)cc3)c2)C1=O,11%
11,COc1ccccc1NC(=O)c1ccc(CN2CCOCC2)cc1,5.38%
12,Cc1ccc(-n2ncc3c(=O)n(CC(=O)N(C(C)C)C(C)C)cnc32)cc1,15.4%
13,COc1cc2c(cc1NC(=O)c1cc(-c3ccncc3)nc3ccccc13)oc1ccccc12,-3.26%
14,O=C(OCc1cc(=O)n2c(n1)sc1ccccc12)c1ccc(O)cc1O,7.81%
15,CCOC(=O)C1CCN(CCCSc2ccc(C)cc2)CC1.Cl,-36.8%
16,C=CCN1C(=O)c2ccc(C(=O)NCCc3ccc(OC)c(OC)c3)cc2C1=O,13.4%
17,CCC(=O)c1c[nH]c(C(=O)NCc2ccccc2OC)c1,10.4%
18,CCN(CC)Cc1c(C(=O)N/N=C/c2cccnc2)nnn1-c1nonc1N,6.93%
19,CSc1ccccc1NC(=O)Cn1c([N+](=O)[O-])cnc1C,7.33%
20,Cc1ccc2nc(C3CCN(S(=O)(=O)c4ccc5ccccc5c4)CC3)[nH]c2c1,9.25%
21,O=C(CNC(=O)[C@@H]1Cc2ccccc2CN1)Nc1ccc2c(c1)OCCO2,13.4%
22,Cc1ccc(SCc2[nH]nc3c2C(c2ccco2)C(C#N)=C(N)O3)cc1 (stereo not drawn),11.4%
23,O=c1cc(CSc2nnc(-c3cccs3)n2Cc2ccccc2)nc2sc3ccccc3n12,-4.25%
24,Clc1ccc(Cn2ccnc2)cn1,0.575%
